{"source": "ChEMBL document CHEMBL4888484", "about": "“Replenishing the malaria drug discovery pipeline: Screening and hit evaluation of the MMV Hit Generation Library 1 (HGL1) against asexual blood stage Plasmodium falciparum ,using a nano luciferase reporter read-out” (2022)", "note": "Out of some 150,000 compounds screened, about 540 (0.36%) showed an effect of 50% or more. Some of the results follow."}
{"system": "Plasmodium falciparum", "assay": "Primary screen in NF54 nanoGlo assay, in single point, at 2uM, 72h; a lower Z score goes with more inhibition", "format": "functional, Erythrocyte", "conditions": "timepoint 72 hour", "units": {"% Inhibition": "%"}}
{"smiles": "CC(C)NC(=O)c1nc(-c2ccc3c(c2)OCO3)no1", "% Inhibition": -2, "Z score": 0.37}
{"smiles": "CCC1(C(=O)NCCC2(NC(=O)OC(C)(C)C)CC2)CCC1", "% Inhibition": -13, "Z score": 1.55}
{"smiles": "O=C1COc2c(Cl)cc(-n3ccnc3-c3ccc(C#CCO)cc3)cc2N1", "% Inhibition": -9, "Z score": 1.78}
{"smiles": "O=C1CN(CCOc2ccc(Cl)cc2)CCN1", "% Inhibition": -5, "Z score": 0.74}
{"smiles": "C[C@H]1CN(C(=O)Cc2ccc3c(c2)CCCO3)CC(=O)N1", "% Inhibition": -4, "Z score": 0.69}
{"smiles": "COc1cc(C(=O)Nc2ccnc(C(=O)OC(C)(C)C)c2)sn1", "% Inhibition": 22, "Z score": -2.73}
{"smiles": "O=C(C1CCS(=O)(=O)C1)N1CC(c2ccccc2)C(c2ncon2)C1", "note": "(stereo not drawn)", "% Inhibition": -2, "Z score": 0.45}
{"smiles": "COc1ccc(CCNC(=O)C(C)C)cc1OC", "% Inhibition": 0, "Z score": 0.03}
{"smiles": "Cc1c(Cl)cccc1CNC(=O)CCCN1CCCCC1=O", "% Inhibition": -5, "Z score": 0.48}
{"smiles": "COc1ccc(C2=NO[C@@H](CNc3nc(C)ns3)C2)cc1F", "% Inhibition": -3, "Z score": 0.55}
{"smiles": "C[C@H]1CCN(Cc2ccsc2)CCS1(=O)=O", "% Inhibition": -1, "Z score": 0.19}
{"smiles": "Nc1nc(N2CCOCC2)ncc1C(=O)NCc1ccccc1", "% Inhibition": -15, "Z score": 1.7}
{"smiles": "Cc1noc(C2CC2)c1NC(=O)N[C@@]1(CO)CCCc2ccccc21", "% Inhibition": -10, "Z score": 1.22}
{"smiles": "CCn1c(CC2CCN(C(=O)[C@H](C)n3cnnn3)CC2)nn(C)c1=O", "% Inhibition": -12, "Z score": 2.35}
{"smiles": "CC1CCN(C[C@H]2CCCN(CCc3cccnc3)C2)CC1", "% Inhibition": -6, "Z score": 0.68}
{"smiles": "O=C(NC1CCCCC1)N1CC[C@H](c2nc(CCOCc3ccccc3)no2)C1", "% Inhibition": -18, "Z score": 2.32}
{"smiles": "COCc1ccc(C(=O)N2CC[C@H](N(C(=O)c3ccc(COC)cc3)C3CC3)C2)cc1", "% Inhibition": 24, "Z score": -2.74}
{"smiles": "Cc1oc(-c2ccccc2Cl)nc1CN1CCNC(=O)[C@@H]1Cc1ccccc1", "% Inhibition": -18, "Z score": 1.92}
{"smiles": "O=C(N[C@H]1CCOC[C@@H]1O)c1nc2ccccc2[nH]c1=O", "% Inhibition": 9, "Z score": -1.03}
{"smiles": "CN1C[C@@H](C(=O)Nc2ccc3c(c2)OCO3)CC1=O", "% Inhibition": -11, "Z score": 1.06}
{"smiles": "Cc1nc(C)n(CCCN[C@H]2CCCC(C)(C)C2)n1", "% Inhibition": 0, "Z score": -0.04}
{"smiles": "CCC(C)C(NC(=O)Cc1cc(C#N)ccn1)C(F)(F)F", "note": "(stereo not drawn)", "% Inhibition": 10, "Z score": -1.17}
{"smiles": "C[C@]1(c2cc(F)ccc2F)NC(=O)N(c2ccncc2)C1=O", "% Inhibition": 10, "Z score": -1.15}
{"smiles": "O=C(CN1CCC(n2cncn2)CC1)Nc1nc2ccccc2s1", "% Inhibition": -12, "Z score": 1.63}
{"smiles": "O=C(c1cnn[nH]1)N1CCC2(CC1)CCN(c1ccccc1)C2=O", "% Inhibition": 6, "Z score": -1.11}
{"smiles": "Cc1ccc(Cl)cc1NC(=O)c1cc(-c2cnn(-c3ccc(C(C)C)cc3)c2C)nc2ccccc12", "% Inhibition": -3, "Z score": 0.42}
{"smiles": "CCC(C)C(=O)OCC1CCCN(C)C1c1ccc(C(F)(F)F)cc1", "note": "(stereo not drawn)", "% Inhibition": -3, "Z score": 0.54}
{"smiles": "O=C(NCc1ccccc1)N1CCCN(C2=Nc3ccccc3Oc3ccccc32)CC1", "% Inhibition": -7, "Z score": 0.97}
{"smiles": "Cc1cc(=O)c2cccc(C(=O)NCCNS(C)(=O)=O)c2[nH]1", "% Inhibition": -18, "Z score": 1.77}
{"smiles": "C[C@H]1CN(C(=O)Cc2ccn(C)n2)CC(=O)N1C", "% Inhibition": -4, "Z score": 0.67}
{"smiles": "CCOC(=O)N1CCC(N[C@H](c2nccs2)C2CC2)CC1", "% Inhibition": -8, "Z score": 0.82}
{"smiles": "Cn1ccnc1CCNc1cc(C(F)F)ncn1", "% Inhibition": -4, "Z score": 0.64}
{"smiles": "O=C1NCCCOc2cccc(c2)[C@H]2c3ccc(cc3CCN2C(=O)CNC2CC2)Oc2ccc(O)c1c2", "% Inhibition": 21, "Z score": -2.34}
{"smiles": "Cc1cnc(C(=O)N2CCCCC[C@@H]2CN2CCCC2)cn1", "% Inhibition": -4, "Z score": 0.56}
{"smiles": "O=S(=O)(c1ccc(F)c(Cl)c1)N1CCCN(c2nc3ccccc3nc2-c2ccccc2)CC1", "% Inhibition": -3, "Z score": 0.25}
{"smiles": "CNC(=O)Nc1cccc(NC(=O)c2cncc(-c3cnn(C)c3)c2)c1", "% Inhibition": 24, "Z score": -3.15}
{"smiles": "N#CCc1ccc(OCC(=O)Nc2ccccc2N2CCc3ccccc32)cc1", "% Inhibition": 18, "Z score": -2.26}
{"smiles": "COc1ccc(OC)c(-c2cc(C(=O)NCC#CCN3CCc4ccccc4C3)[nH]n2)c1", "% Inhibition": -3, "Z score": 0.52}
{"smiles": "Cc1nc(C(C)C)sc1CNC(=O)c1cccn1C1CC1", "% Inhibition": -13, "Z score": 1.51}
{"smiles": "N/C(=N/O)c1nsc(Nc2ccccc2)n1", "% Inhibition": -14, "Z score": 1.79}
{"smiles": "Cc1cnc(CN[C@H]2CCCN(C(=O)OC(C)(C)C)C2)s1", "% Inhibition": -11, "Z score": 1.08}
{"smiles": "COCCN1CCN(CCc2ccccc2)[C@@H]2CS(=O)(=O)C[C@@H]21", "% Inhibition": -17, "Z score": 1.98}
{"smiles": "CCC[C@]1(COC)CCCN1C(=O)Cc1ccc(C)nc1", "% Inhibition": -4, "Z score": 0.65}
{"smiles": "CCCN(Cc1c(C)nn(-c2cccc(F)c2)c1N1CCN(CC)CC1)C(=O)Nc1ccc(C)cc1C", "% Inhibition": -2, "Z score": 0.3}
{"smiles": "O=C(CN1CCCC[C@@H]1CCN1CCCC1=O)NCc1ccccc1F", "% Inhibition": -6, "Z score": 1.08}
{"smiles": "O=C(Nc1ccccc1-c1cn2c(n1)CCCC2)c1ccc(=O)[nH]n1", "% Inhibition": 13, "Z score": -1.72}
{"smiles": "Cc1nc(C2CCN(Cc3c(C)[nH]c4c(C)cccc34)CC2)cc(=O)[nH]1", "% Inhibition": -25, "Z score": 2.34}
{"smiles": "CCOC(=O)c1cnc(-c2ccc(OC)cc2)nc1N(C)Cc1ccccc1", "% Inhibition": -4, "Z score": 0.51}
{"smiles": "Cc1cccc(C(=O)N(Cc2ccco2)[C@H]2CCS(=O)(=O)C2)n1", "% Inhibition": -7, "Z score": 1.46}
{"smiles": "CC[C@@H](c1nc(-c2ccc(-n3nc(C)cc3N)cc2)no1)n1cccn1", "% Inhibition": -2, "Z score": 0.32}
{"smiles": "COCc1nc(NC2CCC(NC(=O)c3ccccc3F)CC2)c2cnn(-c3ccccc3Cl)c2n1", "note": "(stereo not drawn)", "% Inhibition": 13, "Z score": -2.27}
{"smiles": "CCOCCN(C)C1CC2CCCCC2NC1=O", "note": "(stereo not drawn)", "% Inhibition": -11, "Z score": 2.08}
{"smiles": "CCc1nn(C)c(Cl)c1CN1CCc2[nH]cnc2[C@H]1c1ccncc1", "% Inhibition": -11, "Z score": 1.38}
{"smiles": "CC(C)COC(C)C(=O)NC(Cc1ccccc1)c1ncon1", "note": "(stereo not drawn)", "% Inhibition": 37, "Z score": -3.5}
